Results reported in the supplement of paper PMC9446081.
Out of some 39,000 compounds screened, about 220 (0.56%) showed activity. Some of the results follow.

Each compound was assayed on Escherichia coli K-12 BW25113 (assay: relative growth (OD600 normalised to plate interquartile mean) (fraction); higher = less growth inhibition, active = 0.2 or less). Conditions: 50 µM; LB; incubation time: overnight (16-24 h).
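Note: static incubation at 37 °C against the wild-type strain, values averaged over two biological replicates.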

SMILES | relative growth
C[C@@H]1CN([C@H](C)CO)C(=O)c2cc(NC(=O)Nc3cccc4ccccc34)ccc2O[C@@H](C)CCCCO[C@@H]1CN(C)C(=O)C1CCCCC1 | inactive: 1.02
CN(C)CC#Cc1ccc([C@@H]2[C@H]3CN(C(=O)CN(C)C)CCCCN3[C@H]2CO)cc1 | inactive: 0.982
C[C@H]1CCCCO[C@@H](CN(C)C(=O)Nc2ccc(F)cc2)[C@@H](C)CN([C@@H](C)CO)C(=O)c2cc(NC(=O)Cc3ccccc3)ccc2O1 | inactive: 0.987
COc1ccc(S(=O)(=O)N(C)C[C@@H]2OCCCC[C@H](C)Oc3ccc(NS(C)(=O)=O)cc3C(=O)N([C@@H](C)CO)C[C@H]2C)cc1 | inactive: 0.921
COc1cc(C=CC(=O)N2CCCCCCC2)cc(OC)c1OC | inactive: 0.909
C[C@@H]1CN([C@@H](C)CO)C(=O)c2cc(NC(=O)Cn3cnnn3)ccc2O[C@H]1CN(C)C(=O)Nc1ccc(C(F)(F)F)cc1 | inactive: 0.967
C[C@@H]1CCCCO[C@H](CN(C)Cc2ccc(C(=O)O)cc2)[C@@H](C)CN([C@H](C)CO)C(=O)c2cc(NC(=O)CCC(F)(F)F)ccc2O1 | inactive: 1.04
Cc1nn(C)c(C)c1C(=O)O | inactive: 0.98
C[C@@H]1CN([C@@H](C)CO)C(=O)c2cc(NC(=O)c3ccccc3)ccc2O[C@@H](C)CCCCO[C@H]1CN(C)Cc1ccc(C(F)(F)F)cc1 | inactive: 0.908
CC(C)NC(=O)Nc1ccc2c(c1)C(=O)N([C@@H](C)CO)C[C@@H](C)[C@@H](CN(C)S(=O)(=O)c1ccccc1)O2 | inactive: 0.933
CO[C@H](CN(C)S(=O)(=O)c1ccc(Cl)cc1)[C@@H](C)CN([C@H](C)CO)S(=O)(=O)c1cccc(Cl)c1 | inactive: 1.01
OC[C@H]1O[C@H]([S][Au])[C@H](O)[C@@H](O)[C@@H]1O | inactive: 0.877
C[C@@H]1CN([C@H](C)CO)C(=O)Cc2cc(NC(=O)Nc3cccc4ccccc34)ccc2O[C@H]1CN(C)Cc1ccc(-c2ccccc2)cc1 | inactive: 1.05
COCCNC(=O)C[C@H]1CC[C@H]2[C@@H](COC[C@@H](O)CN2S(=O)(=O)c2ccccc2C)O1 | inactive: 0.998
Cc1noc(C)c1S(=O)(=O)Nc1ccc2c(c1)C(=O)N([C@@H](C)CO)C[C@@H](C)[C@@H](CN(C)Cc1ccc3c(c1)OCO3)O2 | inactive: 1.01
CN(C)CCCNC(=O)[C@@]1(C)c2ccccc2C(=O)N(Cc2cc(F)cc(C(F)(F)F)c2)[C@H]1c1ccc(CO)cc1 | inactive: 1.01
Cc1noc(C)c1NC(=O)N(C)C[C@H]1Oc2ccc(NC(=O)NC(C)C)cc2CC(=O)N([C@H](C)CO)C[C@H]1C | inactive: 1.01
NCC[C@H]1CC[C@H](NC(=O)Cc2ccncc2)[C@H](CO)O1 | inactive: 0.977
C[C@@H]1CN([C@H](C)CO)C(=O)Cc2cc(NC(=O)C3CC3)ccc2O[C@H]1CN(C)C(=O)NC1CCCCC1 | inactive: 0.97
C[C@H](CO)N1C[C@H](C)[C@@H](CN(C)C(=O)Nc2ccc3c(c2)OCO3)Oc2ncc(-c3cccnc3)cc2C1=O | inactive: 0.995
COCCn1c(N)c(N(Cc2ccccc2)C(=O)C2=COCCO2)c(=O)[nH]c1=O | inactive: 1

SMILES | relative growth
CS(=O)(=O)NCCc1ccccc1 | inactive: 0.959
C[C@@H]1CCCCO[C@@H](CN(C)S(=O)(=O)c2ccc(Cl)cc2)[C@@H](C)CN([C@H](C)CO)C(=O)c2cc(NC(=O)CCC(F)(F)F)ccc2O1 | inactive: 1.01
C[C@@H]1CN([C@H](C)CO)C(=O)c2cc(C#CCc3ccccc3)cnc2O[C@@H]1CN(C)CC1CCOCC1 | inactive: 1
C=C1C(=O)O[C@@H]2/C=C(\CO[C@@H]3O[C@H](CO)[C@@H](O)[C@H](O)[C@H]3OC(=O)Cc3ccc(O)cc3)CC/C=C(/C=O)C[C@H](O)[C@@H]12 | inactive: 1.01
C[C@H](CO)N1C[C@H](C)[C@H](CN(C)S(=O)(=O)c2ccccc2)Oc2ccc(NC(=O)CCN3CCOCC3)cc2C1=O | inactive: 1.01
COc1ccc(-c2cnc3c(c2)C(=O)N([C@@H](C)CO)C[C@@H](C)[C@H](CN(C)C(=O)Cc2ccccn2)O3)cc1 | inactive: 0.978
Cc1ccc(S(=O)(=O)Nc2ccc3c(c2)C(=O)N([C@@H](C)CO)C[C@@H](C)[C@@H](CN(C)C(=O)Nc2c(C)noc2C)OCCCC[C@@H](C)O3)cc1 | inactive: 1.01
C[C@H](CO)N1C[C@H](C)[C@H](CN(C)C(=O)Nc2cccc3ccccc23)OCCCC[C@H](C)Oc2ccc(NC(=O)c3ccncc3)cc2C1=O | inactive: 0.967
CS(=O)(=O)N1C[C@H](NC(=O)C2CC2)[C@H]2OCCC[C@H]21 | inactive: 0.984
C[C@@H]1CN([C@H](C)CO)C(=O)Cc2cc(NC(=O)Cn3cnnn3)ccc2O[C@H]1CN(C)C(=O)Nc1ccc(C(F)(F)F)cc1 | inactive: 0.984
C[C@H](CO)N1C[C@H](C)[C@@H](CN(C)C(=O)CN2CCOCC2)Oc2ncc(-c3cncnc3)cc2C1=O | inactive: 0.982
C[C@H]1CCCCO[C@@H](CN(C)C(=O)c2ccncc2)[C@@H](C)CN([C@@H](C)CO)C(=O)c2cc(NS(=O)(=O)c3ccc(Cl)cc3)ccc2O1 | inactive: 0.976
CO[C@H](CN(C)S(=O)(=O)c1cccc(Cl)c1)[C@@H](C)CN([C@@H](C)CO)S(=O)(=O)c1cccc(Cl)c1 | inactive: 1.01
C[C@H](CO)N1C[C@H](C)[C@H](CN(C)Cc2ccc(-c3ccccc3)cc2)Oc2ccc(NC(=O)C3CCCCC3)cc2C1=O | inactive: 1.09
COc1ccc(S(=O)(=O)N(C)C[C@@H]2Oc3c(NS(=O)(=O)c4cn(C)cn4)cccc3C(=O)N([C@@H](C)CO)C[C@@H]2C)cc1 | inactive: 1.02
C[C@H]1CN([C@@H](C)CO)C(=O)c2cccc(NC(=O)C3CC3)c2O[C@@H]1CN(C)C(=O)Nc1ccc2c(c1)OCO2 | inactive: 0.977
Cc1ccc(S(=O)(=O)N(C)C[C@@H]2Oc3ncc(C#CC4(O)CCCC4)cc3C(=O)N([C@@H](C)CO)C[C@H]2C)cc1 | inactive: 1.01
CCNC(=O)C[C@@H]1CC[C@@H](NC(=O)C2CCOCC2)[C@H](CO)O1 | inactive: 1
C[C@H](CO)N1C[C@H](C)[C@@H](CN(C)C(=O)C2CCOCC2)Oc2ncc(C#CC3(O)CCCC3)cc2C1=O | inactive: 0.982
C[C@H](CO)N1C[C@H](C)[C@@H](CN(C)Cc2ccc(Cl)c(Cl)c2)Oc2ccc(NC(=O)Cc3ccccc3)cc2C1=O | inactive: 0.957
CSc1nc(Cl)cc(Cl)n1 | inactive: 1.02

SMILES | relative growth
O=C(O)CN1CCCCC1=O | inactive: 1.02
Cc1ccc(Sc2c(-c3ccccc3)nc3sccn23)cc1 | inactive: 1.01
Cc1noc(C)c1NC(=O)N(C)C[C@@H]1Oc2ccc(NC(=O)C3CC3)cc2C(=O)N([C@H](C)CO)C[C@H]1C | inactive: 1
CC(=O)NCc1nnnn1-c1ccc(C)cc1 | inactive: 0.991
COCCN1CCC(CN)CC1 | inactive: 1.01
C[C@@H]1O[C@@H](O[C@H]2[C@H](Oc3cc(O)c4c(c3)O[C@H](c3ccc(O)cc3)CC4=O)O[C@H](CO)[C@@H](O)[C@@H]2O)[C@H](O)[C@H](O)[C@H]1O | inactive: 1.01
CCCC(=O)Nc1ccc2c(c1)OC[C@@H](C)N(Cc1ccc(-c3ccccn3)cc1)C[C@H](C)[C@@H](OC)CN(C)C2=O | inactive: 0.996
Cc1noc(C)c1NC(=O)N(C)C[C@@H]1OCCCC[C@@H](C)Oc2ccc(NC(=O)c3ccccc3)cc2C(=O)N([C@@H](C)CO)C[C@H]1C | inactive: 0.95
C[C@@H]1CN([C@H](C)CO)S(=O)(=O)c2ccc(C#CCN(C)C)cc2O[C@@H]1CN(C)C(=O)C1CCCCC1 | inactive: 0.994
COc1ccc(-c2coc3cc(O)cc(O)c3c2=O)cc1 | inactive: 1.11
C[C@H](CO)N1C[C@H](C)[C@H](CN(C)C(=O)Cc2ccncc2)Oc2cc(C3=CCCC3)ccc2S1(=O)=O | inactive: 0.966
COc1cc(-c2ccc(NN=C3C=Cc4c(S(=O)(=O)O)cc(S(=O)(=O)O)c(N)c4C3=O)c(OC)c2)ccc1NN=C1C=Cc2c(S(=O)(=O)O)cc(S(=O)(=O)O)c(N)c2C1=O | inactive: 1.69
CC1(C)O[C@H]2[C@H](O)C[C@](O)(C(N)=O)C[C@H]2O1 | inactive: 0.998
C[C@@H]1CN([C@H](C)CO)C(=O)c2cccc(NC(=O)c3cnccn3)c2O[C@@H]1CN(C)Cc1ccc(C(=O)O)cc1 | inactive: 0.977
COc1ccc(COC[C@]23N=C4SCc5ccccc5C(=O)N4[C@H](c4ccccc4O2)[C@H]3CO[Si](C)(C)C(C)(C)C)cc1 | inactive: 1.01
CO[C@H]1O[C@H](CO)[C@@H](OC(=O)c2ccc(Br)cc2)[C@@H]2OC(=O)[C@H](Cc3ccccc3)C/C=C/C[C@@H](Cc3ccccc3)C(=O)O[C@@H]12 | inactive: 1.03
C[C@]12CC[C@@H]3[C@]4(C=C[C@@]5(C=C4C(=O)c4cc6ccccc6s4)C[C@@H](O)CC[C@]35C)[C@@H]1CC[C@@]2(O)CN1CCC(n2c(=O)[nH]c3ccccc32)CC1 | inactive: 1.01
Cc1ccc(OC[C@@H](O)CN)c(C)c1 | inactive: 1.02
O=C(C[C@@H]1C=C[C@H](NC(=O)c2ccncc2)[C@H](CO)O1)NCc1ccncn1 | inactive: 1.01
COc1ccc(S(=O)(=O)N(C)C[C@H]2Oc3ccc(NC(=O)Cn4cnnn4)cc3C(=O)N([C@@H](C)CO)C[C@@H]2C)cc1 | inactive: 1.03
